PubChem BioAssay AID1745853 (National Center for Advancing Translational Sciences (NCATS), 2022)
The list shows a part of the results. These are further read-outs of the screen, such as a control signal, another cell line or another target. No call is given for them.

Legend:
Assay in all cases: Primary Screen for Target Class Profiling of Small Molecule Inhibitors of Methyltransferases
[1] = biological target: Glycine N-methyltransferase (Homo sapiens) (UniProt Q14749); details: purified enzyme, MTase-Glo SAH luminescence; measured here: GNMT inhibition; at 40 µM; stronger effect = lower value
How it was run: (§1)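 Each enzyme was reacted with SAM and its substrate, with compounds tested once at 40 uM; SAH formed was read by MTase-Glo luminescence.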

[2] = biological target: Guanidinoacetate N-methyltransferase (Homo sapiens) (UniProt Q14353); details: purified enzyme, MTase-Glo SAH luminescence; measured here: GAMT inhibition; at 40 µM; stronger effect = lower value
How it was run: as §1

[3] = biological target: Histamine N-methyltransferase (Homo sapiens) (UniProt P50135); details: purified enzyme, MTase-Glo SAH luminescence; measured here: HNMT inhibition; at 40 µM; stronger effect = lower value
How it was run: as §1

[4] = biological target: Nicotinamide N-methyltransferase (Homo sapiens) (UniProt P40261); details: purified enzyme, MTase-Glo SAH luminescence; measured here: NNMT inhibition; at 40 µM; stronger effect = lower value
How it was run: as §1

[5] = biological target: Phenylethanolamine N-methyltransferase (Homo sapiens) (UniProt P11086); details: purified enzyme, MTase-Glo SAH luminescence; measured here: PNMT inhibition; at 40 µM; stronger effect = lower value
How it was run: as §1
% is scaled to controls: 0 for no effect and ±100 for the full control effect.

| Structure (SMILES) | activity change, negative = inhibition [1] [%] | activity change, negative = inhibition [2] [%] | activity change, negative = inhibition [3] [%] | activity change, negative = inhibition [4] [%] | activity change, negative = inhibition [5] [%] |
| --- | --- | --- | --- | --- | --- |
| CC(C)CCNC(=O)CCc1nnc2n(Cc3ccc(F)cc3)c(=O)c3ccccc3n12 | -4.15 | 2.23 | 5.82 | 1.8 | 0.12 |
| Cc1ccc2nc(C(=O)N3CCCC3c3cc(C(C)C)on3)cn2c1 (stereo not given) | -5.25 | -1.56 | -3.49 | -7.44 | -6.88 |
| COc1cccc(Cn2nc3n(CCc4ccccc4)c(=O)c4ccccc4n3c2=O)c1 | -8.38 | 0.379 | -0.7 | -9.77 | -2.65 |
| Cc1nc(C)c2c(n1)N(Cc1ccc(-c3ccccc3-c3nn[nH]n3)cc1)C(=O)CC2 | -16.4 | 0.529 | 11.6 | -18.7 | 1.16 |
| CCCSCCCN1C(=O)c2cc3sc(CC)cc3n2CC1(C)C(=O)NC1CCCCC1 (stereo not given) | 2.98 | 0 | 7.06 | 12.2 | 1.33 |
| CN1CCCN(C[C@@H]2CN(C(=O)c3ccn(C)n3)C[C@@H]2CO)CC1 | -2.15 | 1.02 | -1.49 | -2.46 | 1.17 |
| COc1ccc(NC(=O)Cn2nc3n(Cc4ccc(F)cc4)c(=O)c4ccccc4n3c2=O)cc1 | -3.59 | -3.33 | 1.34 | -7.03 | -4.07 |
| Cc1ccccc1CC(=O)N1CC(F)(F)C[C@H]1c1nnc(C2CC2)o1 | 0.85 | 1.25 | 2.77 | -7.66 | 2.44 |
| C=CS(=O)(=O)NC1CCN(C(=O)CNc2cc(I)c(Cl)cc2OC)CC1 | -13.3 | -5.43 | 2.58 | -24 | -0.686 |
| COc1ccc(-c2cc3n(n2)CC(C)(C(=O)NCc2ccccc2OC)N(Cc2ccc(F)cc2)C3=O)cc1 (stereo not given) | 2.54 | 0 | 2.97 | 2.01 | -3.4 |
| CCc1ccc(C(=O)NC(Cc2c[nH]c3ccccc23)C(=O)OCC(=O)c2ccccc2)cc1 (stereo not given) | -0.77 | 4.83 | 4.5 | -5.72 | -1.56 |
| CC(N=C(NC#N)Nc1ccncc1)C(C)(C)C (stereo not given) | -7.48 | 4.44 | 1.1 | -4.92 | 6.11 |
| C=C1[C@@H]2CC[C@@]3(C)[C@H](c4ccoc4)OC(=O)C[C@]13O[C@H]1CC(=O)C(C)(C)[C@H](C(O)C(=O)OC)[C@]12C (stereo not given in full) | 0.141 | -6.15 | 6.41 | -20.8 | 1.03 |
| COc1cccc(CNC(=O)c2cc3n(n2)CC(C)(C(=O)NC2CCCC2)N(C)C3=O)c1 (stereo not given) | 2.15 | 4.72 | -1.54 | 1.99 | -1.6 |
| Cc1ccc(CNC(=O)C2(C)Cn3c(nc4ccccc43)C(=O)N2Cc2cccc(C)c2)cc1 (stereo not given) | 2.35 | 2.84 | 0.969 | 2.56 | -0.758 |
| COc1ccc(-c2nccn2CC(CO)Cc2ccsc2)cc1O (stereo not given) | -1.28 | -3.48 | -34.8 | -4 | -2.05 |
| CC1(C)CC[C@]2(C(=O)O[C@@H]3O[C@H](CO)[C@@H](O)[C@H](O)[C@H]3O)CC[C@]3(C)C(=CCC4[C@@]5(C)CC[C@H](O[C@@H]6O[C@H](C(=O)O)[C@H](O)[C@H](O)[C@H]6O)C(C)(C)C5CC[C@]43C)[C@@H]2C1 (stereo not given in full) | -4.31 | 3.82 | 4.35 | -8.42 | -4.58 |
| COc1ccc2cc3n(c2c1)CC(C)(C(=O)NC1CCCCC1)N(Cc1ccccc1C)C3=O (stereo not given) | -2.59 | -0.033 | -2.43 | -3.67 | -6.34 |
| CC1(C(=O)NC2CCCCCC2)Cn2c(cc3occc32)C(=O)N1CCN1CCCC1 (stereo not given) | 1.7 | 0.49 | -4.64 | 4.16 | 0.708 |
| Cc1nn2c(c1-c1ccccc1-c1ccccc1)N(C(=O)c1cnccn1)CCC2 | -7.11 | -10.3 | -4.02 | -16.2 | 4.86 |

| Structure (SMILES) | activity change, negative = inhibition [1] [%] | activity change, negative = inhibition [2] [%] | activity change, negative = inhibition [3] [%] | activity change, negative = inhibition [4] [%] | activity change, negative = inhibition [5] [%] |
| --- | --- | --- | --- | --- | --- |
| COc1ccccc1CNC(=O)C1(C)Cn2nc(-c3ccccc3)cc2C(=O)N1c1ccc(F)cc1C (stereo not given) | 5.42 | 0 | 6.03 | 5.66 | 0.308 |
| O=S(=O)(c1ccccc1)c1nnn2c1nc(N1CCN(c3ccc(F)cc3)CC1)c1ccccc12 | 2.45 | 4.84 | -1.89 | 3.69 | 3.2 |
| CCc1ccc(CN2C(=O)c3ccc(-c4ccccc4)n3CC2(C)C(=O)NC2CCCCC2)cc1 (stereo not given) | 9.37 | 0 | 8.12 | 5.27 | 3.85 |
| CC1(C(=O)NC2CCCCCC2)Cn2nc(-c3ccco3)cc2C(=O)N1Cc1ccc2c(c1)OCO2 (stereo not given) | -11.7 | 1.31 | -7.78 | -13.9 | -8.22 |
| COc1ccc(-c2cc3n(n2)CC(C)(C(=O)NCc2ccccc2OC)N(Cc2cccc(OC)c2)C3=O)cc1 (stereo not given) | 1.68 | 0.456 | 3.76 | -7.6 | -3.19 |
| Cc1ccc(CNC(=O)c2cc3n(n2)CC(C)(C(=O)NC2CCCC2)N(C)C3=O)cc1 (stereo not given) | 4.99 | 0 | -0.903 | 5.47 | -1.19 |
| O=C(c1ccsc1)N1CCC2(CC1)CN(C1CCC1)CC2CO (stereo not given) | -2.9 | 0.617 | -3.23 | -6.01 | -1.74 |
| CC(C)S(=O)(=O)N1CCC(N(Cc2cccnc2)C2CCOCC2)CC1 | -1.98 | 2.03 | 2.07 | -4.98 | -2.51 |
| Cc1ccc(C)c(C(=O)Cn2nc3n(C)c(=O)c4ccc(C(=O)NC5CCCCC5)cc4n3c2=O)c1 | 0.548 | 3.89 | 4.64 | 1.08 | 0.2 |
| CCOC(=O)c1cccc(N2C(=O)c3cc4ccccc4n3CC2(C)C(=O)NCCC(C)C)c1 (stereo not given) | -1.38 | 6.67 | 0.923 | -3.28 | -2.46 |
| COc1ccc(CNC(=O)CCCc2nnc3n4nc(C)nc4c4ccccc4n23)cc1 | -3.94 | 0.029 | 4.84 | 11.5 | -2.41 |
| Cc1cc2c(cc3n2CC(C)(C(=O)NC2CCCCCC2)N(C2CCCc4ccccc42)C3=O)o1 (stereo not given) | -7.23 | 0 | -4.54 | -1.92 | -5.91 |
| COC(=O)c1cc2n(n1)CC(C)(C(=O)NC1CCCC1)N(c1ccccc1C)C2=O (stereo not given) | 0.135 | 1.99 | 0.126 | 4.29 | 0.351 |
| Cc1ccc(S(=O)(=O)c2nnn3c2nc(N2CCCC(C)C2)c2ccccc23)cc1 (stereo not given) | -4.96 | 0.369 | 7.82 | 4.39 | 1.11 |
| COc1ccc(Cn2c(=O)c3ccccc3n3c(-c4cc(Br)cs4)nnc23)cc1 | -2.37 | 3.22 | -1.85 | 2.16 | -4.42 |
| COCCNc1ncccc1-c1noc([C@@H]2CCCN2C2CCN(C)CC2)n1 | -4.22 | -5.9 | -13.7 | -6.15 | -4.18 |
| CCOC(=O)c1cc2n(n1)CC(C)(C(=O)NC1CCCCC1)N(c1cccc(OC)c1)C2=O (stereo not given) | -2.33 | -0.728 | -2.83 | -3.82 | -4.97 |
| CC(C)Cn1c(=O)c2ccccc2n2c(CCC(=O)NCCc3ccccc3)nnc12 | -3.7 | 2.87 | 1.6 | -12.3 | -2.47 |
| CCCCCNC(=O)c1ccc2c(=O)nc3c(-c4cccc(F)c4)n[nH]n3c2c1 | -5.24 | 2.68 | 0.485 | -4.87 | -5.09 |
| OC1(c2ccc3c(c2)c2c4n3CCN(Cc3ccccc3)C4CCC2)CCCC1 (stereo not given) | 0.24 | 4.46 | 0.927 | 2.27 | -3.23 |

| Structure (SMILES) | activity change, negative = inhibition [1] [%] | activity change, negative = inhibition [2] [%] | activity change, negative = inhibition [3] [%] | activity change, negative = inhibition [4] [%] | activity change, negative = inhibition [5] [%] |
| --- | --- | --- | --- | --- | --- |
| COC(=O)c1cc2n(n1)CC(C)(C(=O)NC1CCCCCC1)N(c1ccc(OC)cc1)C2=O (stereo not given) | 0.682 | 5.19 | 5.82 | 0.081 | 2.9 |
| O=[N+]([O-])c1cccc2[nH]c(CNc3nc(N4CCOCC4)nc4c3ncn4-c3ccsc3)nc12 | -5.31 | 7.59 | 8.48 | -18.1 | 3.21 |
| Cc1csc(NC(=O)c2sc3nc4c(c(C(F)(F)F)c3c2N)CCC4)n1 | -6.92 | -3.91 | -11 | -25.7 | -15 |
| CC1CC(C)CN(CCCN2C(=O)c3cc4sccc4n3CC2(C)C(=O)NC2CCCCCCC2)C1 (stereo not given) | 9.82 | 0 | 5.87 | 4.49 | -2.21 |
| Nc1ncnc2c1c(COc1cccc(Cl)c1)nn2C1CCOCC1 | -5.72 | -2.05 | 1.91 | -31.5 | -32.3 |
| CC1(C(=O)NCc2ccc(F)cc2)Cn2cnc(C(=O)NCCc3ccc(Cl)cc3)c2C(=O)N1C1CC1 (stereo not given) | 2.2 | 0 | 10.9 | 8.03 | 6.37 |
| c1ccc(CO[C@H]2COCCN(c3nc4ccccc4o3)C2)cc1 | -3.36 | -1.35 | -57.7 | -14.7 | 1.7 |
| C=CCn1c(=O)c2ccc(C(=O)NC(C)C)cc2n2c(=O)n(CC(=O)Nc3ccc(C)cc3C)nc12 | 5.45 | 0 | 9.49 | 6.74 | 5.16 |
| COc1ccc(CCC(=O)N2CCC3(CC2)CC(Cc2nc(-c4cnccn4)no2)CCO3)cc1 (stereo not given) | -5.99 | -9.21 | -1.7 | -16.1 | -7.26 |
| CCOC(=O)C1(Cc2ccc(F)cc2)CCCN(C(=O)c2cc3nc(C)cc(C)n3n2)C1 (stereo not given) | -7.67 | -2.21 | -0.554 | -5.25 | 4.83 |
| COc1ccc2cc3n(c2c1)CC(C)(C(=O)NC1CCCC1)N(CC(C)c1ccccc1)C3=O (stereo not given) | -2.49 | 2.8 | -5.06 | -2.27 | -2.22 |
| CCCC1c2cccn2CCN1C(=O)Nc1cc(C)ccc1OC (stereo not given) | 1.34 | 0 | -16.1 | 2.26 | 4.8 |
| O=C(NC1CCN(CC(F)(F)F)CC1)c1ccc(-c2cccc(F)c2)nc1 | 2.23 | 0.732 | 8.03 | -17.7 | -0.369 |
| CC(C)OCCCNC(=O)C1c2c(n(C)c3ccccc23)SCC(=O)N1CCc1ccsc1 (stereo not given) | -4.87 | 0.366 | 4.7 | 1.51 | 0.217 |
| COc1cccc(CN2C(=O)c3ccc(-c4ccccc4)n3CC2(C)C(=O)NC2CCCCCC2)c1 (stereo not given) | 0.501 | -0.653 | -2.59 | -12.2 | -5.11 |
| COc1ccc2cc3n(c2c1)CC(C)(C(=O)NC1CCCC1)N(C1CCCC1)C3=O (stereo not given) | 5.61 | 0.541 | 12.7 | 3.79 | 1.23 |
| CCCN1C(=O)c2c(C(=O)NCc3ccccc3OC)ncn2CC1(C)C(=O)NCc1ccc(C)cc1 (stereo not given) | -0.105 | 0 | 9.25 | 10.9 | 8.81 |
| Cc1ccc(C2c3cccn3-c3sc4c(c3CN2C(=O)Nc2cc(F)ccc2F)CCCC4)cc1 (stereo not given) | -4.43 | -9.81 | 0.779 | -10.1 | -3.3 |
